According to PubChem BioAssay AID493208 (National Center for Advancing Translational Sciences (NCATS), 2011):
The whole screen tested about 44,000 compounds, of which about 340 (0.77%) were called active. Inconclusive results (about 5%) are left out. Calls come from the whole dose curve; as a rule, active = well fitted inhibition curve with a large enough effect; inconclusive = small, poorly fitted or top-dose-only effect; inactive = flat fitted curve, though single readings scatter. This is one part of the list.

assay: Acumen qHTS Assay for Inhibitors of the mTORC1 Signaling Pathway in MEF (Tsc2-/-, p53-/-) Cells: Sytravon; details: phospho-rpS6 immunofluorescence/PI, 24 h; series mostly up to 38.3 µM; activity change, negative = inhibition: at the top concentration;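 note: plate controls were DMSO for no effect and rapamycin for full effect; nearly all actives have a fitted effect of over 50% in size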
Summary of the method: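 Plate MEFs (Tsc2-/-, p53-/-, empty vector) in DMEM/10% FBS; after 24 h add compound, incubate 24 h at 37 degree Celsius; fix in PFA/TX-100, block, stain phospho-rpS6 and 10 uM PI; scan at 488 nm; report % positive cells.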

Activity change, negative = inhibition, inactive:
Cc1ccc2occ(CC(=O)N(Cc3ccc(N(C)C)cc3)C3CCS(=O)(=O)C3)c2c1 (configuration not stated) -1%
CCOc1ccc(CNC(=O)CCC(=O)N2CCSc3ccccc32)cc1 -4.44%
COc1ccc2nc(N3CCN(C(=O)C4CC4)CC3)sc2c1 -0.755%
COc1ccc(NC(=O)N2CCc3c([nH]c4ccc(OC)cc34)C2c2ccc(OC)cc2)cc1 (configuration not stated) 1.73%
COC(=O)c1cc2oc3ccccc3c2n1Cc1c(F)cccc1Cl 1.65%
CCc1cccc(NC(=O)CN2CCCN(Cc3cccc(C)c3)S2(=O)=O)c1 14.7%
COc1ccc(N2CCN(C(=O)c3ccc4nc(N5CCC(C)CC5)sc4c3)CC2)cc1 -0.186%
Cc1ccc(Cl)cc1N(C)C(=O)c1cnc(N2CCOCC2)c2ccccc12 -8.35%
CCN(CC)C(=O)C1CCCN(c2ncnc3onc(C)c23)C1 (configuration not stated) 8.95%
COc1cccc(-c2nc3c(C#N)c[nH]n3c2NC2CCCCC2)c1OC 0.8%
CC(NC(=O)c1sc2ncccc2c1-n1cccc1)c1ccccc1 (configuration not stated) -4.1%
O=C(NCC(c1cccnc1)N1CCN(Cc2ccccc2)CC1)C(=O)Nc1cccc(F)c1 (configuration not stated) 0%
Cc1ccc(Cn2c(=O)n(CC3CCC(C(=O)N4CCOCC4)CC3)c(=O)c3sccc32)cc1 (configuration not stated) 2.56%
O=C(CC1Oc2ccc(Cl)cc2NC1=O)NCc1ccccc1 (configuration not stated) -0.0621%
CCOC(=O)CC(NC(=O)Cn1nnc(-c2ccc(C(F)(F)F)cc2)n1)c1ccc(C)cc1 (configuration not stated) -9.15%
COc1ccc(CCNC(=O)CCCCCn2c(SCC(N)=O)nc3cc4c(cc3c2=O)OCO4)cc1OC -3.78%
Cc1ccc(S(=O)(=O)N2CCCc3cc(NC(=O)c4ccccc4Cl)ccc32)cc1 20.1%
CCN(CC)S(=O)(=O)c1ccc2c(c1)N(CC(=O)Nc1ccc(F)cc1)C(=O)CO2 1.39%
Cc1ccc(C)c(N(C)C(=O)C2CCN(c3ncnc4c3nc3n4CCCCC3)CC2)c1 -1.51%
Cn1cnc(S(=O)(=O)N2CCCC(C(=O)Nc3cccc(C#N)c3)C2)c1 (configuration not stated) 15.1%
COc1ccc(NC(=O)N(Cc2nnc3n2CCCCC3)c2ccc(OC)c(Cl)c2)cc1 3.49%
Cc1ccc(CNCc2c(C(=O)O)c(C)n(Cc3ccc(C)cc3)c2C)cc1 -4.81%
O=C(Nc1c(C(=O)c2ccc(F)cc2)oc2ccccc12)c1cc(-c2ccccc2)on1 -10%
CCN(CC)S(=O)(=O)c1nnc(NC(=O)COc2cccc(C)c2)s1 -2.09%
CCn1c(=O)cc(OCC(=O)Nc2cc(OC)c(OC)c(OC)c2)c2ccccc21 -0.648%
COCCNC(=O)CSc1nc2ccccc2nc1Cc1ccc(C)cc1 4.63%
COc1cccc(N2CCN(c3ccc4nnc(CCC(=O)O)n4n3)CC2)c1 -2.96%
CCOc1ccc(CNC(=O)c2ccc3nc(CC)c(CC)nc3c2)cc1OC -5.22%
CCc1ccc(S(=O)(=O)c2c(C(=O)c3ccc(C)c(C)c3)cnc3ccccc23)cc1 -11.8%
O=C(Cn1c(=O)n(-c2ccccc2)c(=O)c2c3c(sc21)CCCC3)Nc1cccc(F)c1 -4.41%
CN(C)c1ccc(CNC(=O)c2ccc(NC(=O)c3nsc4ccccc34)cc2)cc1 5.59%
COc1cccc(Cc2nc3ccccc3nc2SCC(=O)Nc2ccccc2F)c1 1.92%
Cc1c(C(=O)NCc2ccccc2Cl)cccc1-n1cnc2cccnc21 -9.98%
Cc1cccc(CNC(=O)c2ccc3nc(-c4ccccc4)c(-c4ccccc4)nc3c2)c1 0.989%
Cc1cccc(NC(=O)Cn2c(=O)n(CCc3ccccc3)c(=O)c3sc4ccccc4c32)c1 -10.2%
CC(C)C1N=C2c3ccccc3N=C(SCC(=O)NCc3ccc(F)cc3)N2C1=O (configuration not stated) 0%
CCC12CN3CC(C)(CN(C1)C3c1c(C)n(C)c3ccccc13)C2=O (configuration not stated) 0.775%
O=C(CSc1nc2c([nH]c3ccccc32)c(=O)n1-c1ccc(F)cc1)N1CCCc2ccccc21 1.34%
CCOC(=O)Cn1c(=O)n(C2CCCCC2)c2nc(-c3ccccc3Cl)nc(C(N)=O)c21 -2.03%
Nc1c(-c2nc(-c3ccc(Cl)cc3)no2)nnn1-c1ccc(C(F)(F)F)c(Cl)c1 -9.42%
COc1cc(NC(=O)c2cc(C3CC3)nc3c2c(C)nn3-c2ccc(C)cc2)cc(OC)c1 0.561%
Cc1cccc(C)c1OCc1nc2c3cnn(-c4ccccc4Br)c3ncn2n1 -1.67%
CCOC(=O)CC(NC(=O)c1cc2c(=O)n3cccc(C)c3nc2s1)c1ccc(OCC(C)C)c(OC)c1 (configuration not stated) -6.47%
COc1ccc(-c2c(C)nn3c(-c4ccccc4)cc(-c4ccccc4)nc23)cc1OC 1.04%
COc1ccc(CCN2C(=O)c3[nH]nc(-c4ccccc4O)c3C2c2ccc(O)c(OC)c2)cc1 (configuration not stated) 6.82%
O=C(NC1CCCCC1)c1cc(Nc2ccccc2)nc2ccccc12 -1.52%
COC(=O)c1ccc(NC(=O)CCNS(=O)(=O)c2cccc3nsnc23)cc1 -5.24%
CCC(CC)C(=O)Nc1nnc2n1CCS2 -7.19%
Cn1nccc1C(=O)NCc1ccc2c(c1)CCN2C(=O)c1ccc(F)cc1 -7.65%
Cc1ccc(C(=O)N2CCC(c3c[nH]c4ccccc34)(c3c[nH]c4ccccc34)CC2)cc1 1.85%
COc1cccc(CNC(=O)c2ccc(Cn3c(SCc4ccccc4)nc4cccnc43)cc2)c1 1.29%
COc1ccccc1Nc1cc(C(=O)NCCCN(C)c2ccccc2)c2ccccc2n1 -1.14%
COc1ccc(OC)c(-c2cc(C(=O)Nc3cccc(Cl)c3C)no2)c1 -22.9%
COc1cc(Cl)ccc1Nc1ncc(C(=O)N2CCN(c3ccccc3OC)CC2)c2ccccc12 0.783%
O=C(CSc1nc(-c2ccccc2)nc2c1CCCC2)c1ccc(F)cc1 11.2%
CCC(=O)N1c2ccc(S(=O)(=O)NCc3cccc(OC)c3)cc2CC1C (configuration not stated) 5.69%
COc1cc(NC(=O)CCc2c(C)nc3nc(-c4cc(OC)cc(OC)c4)nn3c2C)cc(OC)c1 -7.79%
Cc1nc2ccccc2n1CC(O)COc1ccc(C(=O)O)cc1 (configuration not stated) 3.7%
Cc1ccc(-n2c3nc(=O)n(C)c(=O)c-3cc3c(Cl)cccc32)c(C)c1 1.13%
Cc1ccc(NS(=O)(=O)c2ccc(NC(=O)N3CCCC3)cc2)cc1C 4.35%
CCn1c(C(=O)N2CCC(C(=O)NCCc3ccccc3)CC2)cc2sccc21 1.79%
CCC(Sc1nnc(-c2ccc(OC)cc2)c(-c2ccc(OC)cc2)n1)C(=O)NC1CCCCC1 (configuration not stated) 9.31%
CC1CCCN(S(=O)(=O)c2ccc(NC(=O)c3nc(SC(C)C)ncc3Cl)cc2)C1 (configuration not stated) -4.56%
CCCCN(Cc1ccccc1)C(=O)c1oc(=O)c2ccccc2c1-c1ccc(C)cc1 3.07%
COc1ccccc1/C=C/c1nc(C#N)c(N2CCCCCC2)o1 -20.4%
COc1ccc(-n2nc(C(=O)N3CCN(c4ccccc4OC)CC3)c3c4ccccc4n(C)c3c2=O)cc1 -16.1%
CCOC(=O)c1ccc(NC(=O)C(CC)Sc2nc3ncccc3[nH]2)cc1 (configuration not stated) -5.47%
COc1ccc(N2CC(NC(=O)c3ccc(S(=O)(=O)N4CCCC4)cc3)CC2=O)cc1 (configuration not stated) 0.477%
COc1cccc(N2CC(NC(=O)/C=C\c3ccc4c(c3)OCO4)CC2=O)c1 (configuration not stated) -0.0709%
CCc1ccccc1NC(=O)CN1C(=O)CCc2cc(S(=O)(=O)N3CCCCC3)ccc21 0%
Cc1ccc(CNC(=O)c2ccc(CSCc3ccc(Cl)cc3)o2)cc1 -3.91%
CCCCNS(=O)(=O)c1ccc2nc(NC(=O)c3cccnc3)sc2c1 3.19%
CCOc1ccccc1C(=O)Nc1c(NC)c2ccccc2oc1=O 6.88%
Cc1ccc(-n2ccnc(NCc3ccccc3)c2=O)cc1C -7.76%
O=C(NCc1cccc(F)c1)C1=Cc2cc(Br)ccc2OC1 0.621%
Cn1c(=O)oc2cc(S(=O)(=O)N3CCCC(C(=O)Nc4ccc(Br)cc4F)C3)ccc21 (configuration not stated) -3.94%
O=C(Nc1cc(C(F)(F)F)ccc1Cl)c1cc2nc(-c3ccc4c(c3)OCO4)cc(C(F)(F)F)n2n1 1.68%
COc1ccc(N(CC(=O)NCc2ccc(F)cc2)S(=O)(=O)c2c(C)n[nH]c2C)cc1 0.166%
COc1ccc(OCCCn2c(=O)oc3ccc(C)cc32)cc1 -3.79%
O=C(CSc1nc2c(oc3ccccc32)c(=O)n1Cc1ccco1)Nc1cccc(Cl)c1 -8.08%
Cc1cn(C)c(CC(=O)Nc2cccc(Cl)c2C)c1C(=O)O -2.91%
Cc1cc(C)cc(NC(=O)CN2C(=O)c3ccccc3Sc3ccc(C(=O)N4CCOCC4)cc32)c1 0.0864%
COc1cc2c(cc1NS(=O)(=O)c1cccc(C#N)c1)n(C)c(=O)n2C 11.6%
Cc1ccc(C)c(Cn2nnc(C(=O)NCc3ccc(Cl)cc3Cl)c2N)c1 -13.6%
C=CCc1cccc2cc(C(=O)Nc3cccc(Cl)c3)c(=O)oc12 7.35%
Cc1cccc(C(=O)NCCc2sc(-c3ccccc3)nc2C)c1 1.65%
CCOC(=O)c1sc2ccccc2c1S(=O)(=O)Nc1cccc(C(F)(F)F)c1 -5.71%
Cc1coc2c1c(C)cc1oc(=O)cc(C)c12 4.72%
CC(C)OCCCNC(=O)c1ccc2c(=O)n(CCc3ccccc3)c(=O)[nH]c2c1 -17.2%
Cc1oc(-c2cccc(Cl)c2)nc1CN1CCCC(C(=O)NCc2ccc(F)cc2)C1 (configuration not stated) 3.01%
CCCCN(C)C(=O)C(Cc1ccccc1)NS(=O)(=O)c1ccc2c(c1)c(=O)n(C)c(=O)n2C (configuration not stated) -1.16%
COc1ccc(-c2nnc(SCC(=O)Oc3c(C)cccc3C)o2)cc1OC 8.06%
COC(=O)c1cc(NC(=O)Cn2nc(C)n3cccc3c2=O)cc(C(=O)OC)c1 -6.22%
CCC(C)NC(=O)c1ccc(-n2c(-c3ccccc3)cc3c2CCCC3)cc1 (configuration not stated) 0%
Cc1ccc(-c2c(C(=O)NCc3ccccc3)oc(=O)c3ccccc23)cc1 2.73%
Cc1ccccc1CNC(=O)c1ccc(-c2nc(CS(=O)(=O)c3ccccc3)c(C)o2)cc1 -9.18%
CCOC(=O)C1=C(CS(=O)(=O)c2ccc(Br)cc2)NC(=O)NC1c1ccccc1 (configuration not stated) -15.3%
